The whole screen tested about 110,000 compounds, of which about 230 (0.21%) showed an effect of 50% or more. The list shows a part of the results.
These molecules were tested against DPAP1 (Plasmodium falciparum, UniProt Q8IIJ9) (assay: primary screen, percent inhibition; read by cleavage of a fluorogenic dipeptide substrate; higher = more effect of the substance).
Design: species or system P. falciparum D10 trophozoite lysates; single well
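Also: 30 min substrate incubation versus DMSO and 10 µM JCP410 controls.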

Sequence of DPAP1 (Q8IIJ9 whole entry, looked up): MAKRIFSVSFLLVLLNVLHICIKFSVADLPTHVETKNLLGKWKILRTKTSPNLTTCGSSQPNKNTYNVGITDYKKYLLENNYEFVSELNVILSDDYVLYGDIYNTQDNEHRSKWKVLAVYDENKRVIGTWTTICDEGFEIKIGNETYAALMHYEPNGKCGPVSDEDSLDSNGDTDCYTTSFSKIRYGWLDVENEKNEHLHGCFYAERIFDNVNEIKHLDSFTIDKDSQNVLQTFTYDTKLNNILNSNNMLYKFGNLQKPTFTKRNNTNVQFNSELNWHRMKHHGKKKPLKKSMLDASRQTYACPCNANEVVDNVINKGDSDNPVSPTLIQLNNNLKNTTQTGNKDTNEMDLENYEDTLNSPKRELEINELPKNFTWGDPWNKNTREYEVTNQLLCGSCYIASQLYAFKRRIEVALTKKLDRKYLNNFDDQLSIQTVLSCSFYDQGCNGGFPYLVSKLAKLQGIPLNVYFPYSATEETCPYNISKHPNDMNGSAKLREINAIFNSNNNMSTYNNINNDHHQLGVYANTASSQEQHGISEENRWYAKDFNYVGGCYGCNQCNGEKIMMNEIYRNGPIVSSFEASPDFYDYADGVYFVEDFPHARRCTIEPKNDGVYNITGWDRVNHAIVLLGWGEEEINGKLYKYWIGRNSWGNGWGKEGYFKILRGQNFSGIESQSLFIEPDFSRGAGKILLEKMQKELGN

Structure (SMILES)	% Inhibition @ 10 uM [%]
Cc1nc2ccccc2c(O)c1CN1CC(C)OC(C)C1 (stereo not shown)	-2.3
COc1nc(NC(C)(C)C)nc(OC)n1	-0.693
CCCN(CCC)S(=O)(=O)c1ccc(NC(=O)C(C)(C)C)cc1	-0.496
Fc1ccccc1CNCCc1c[nH]c2ccccc12	1.63
Cc1cc(Br)c(S(=O)(=O)C(C)(C)C)c(Br)c1	1.8
CC(C)(C)c1cc(SCCC#N)cc(C(C)(C)C)c1O	-5.35
Nc1c(C(=O)NCCc2ccccc2Cl)sc2nc(-c3ccncc3)ccc12	0.0719
COC(=O)c1ccc(-c2ccco2)n1Cc1nc(-c2ccccc2F)oc1C	2.84
Cc1cc(OCC(=O)NCc2ccc3c(c2)OCO3)cc(C)c1Cl	-12
Cc1ccnc(NC(=O)c2cn(C3CCCC3)c(=O)c3c2c2ccccc2n3C)c1	-3.39
COc1ccc(C2C3=C(O)CCCC3=Nc3[nH]nc(-c4ccccc4)c32)cc1 (stereo not shown)	0.244
CC1=CSC2=NC(=O)/C(=C\c3coc4ccccc4c3=O)C(=N)N12	2.74
O=C(O)C1CCN(c2nc(-c3ccc(F)cc3)cs2)CC1	-0.185
COc1ccc2ncc(S(=O)(=O)c3ccccc3)c(N3CCCCC3C)c2c1 (stereo not shown)	-5.54
O=C(CCc1nnc2n(Cc3ccccc3)c(=O)c3ccccc3n12)N1CCN(c2ncccn2)CC1	-2.42
CCOc1ccc(-c2cc(NC(=O)c3noc4c3CCCCC4)on2)cc1OCC	2.42
CCC1CCCCN1C1CCN(CCc2ccccc2)CC1 (stereo not shown)	0.565
CCc1ccc(C(=O)CC2(O)C(=O)Nc3ccc(CC)cc32)cc1 (stereo not shown)	2.49
N#CC1C(=S)N=C2CCCCC2=C1c1cccs1 (stereo not shown)	40.5
CN(CCCNc1cnnc2c(Cl)cccc12)Cc1ccccc1	-4.4
Cc1ccccc1C(=O)NCCc1ccccc1	-3.27
O=C(CSc1nnc(COc2ccccc2)o1)N1CCCC1	2.42

Structure (SMILES)	% Inhibition @ 10 uM [%]
COc1cc(OC)cc(C(=O)Nc2ccccc2OC)c1	4.42
Cc1ccc(C2=NS(=O)(=O)N(C)C(C(=O)Nc3cc(C)n(CC(=O)NCc4ccco4)n3)=C2)cc1	-2.84
CN(C)CCN(Cc1ccccc1)Cc1ccc(O)cc1	-4.14
COC(=O)c1cc2c(s1)-c1ccccc1OC2	10.3
CCCCOc1ccc(-c2nc(/C=N/Cc3ccccc3)c(O)o2)cc1	-2.54
COc1ccc(C(=O)C2=C(O)C(=O)N(CCN3CCOCC3)C2c2cccnc2)cc1OC (stereo not shown)	-7.19
COc1ccc2cc3c(N)nn(C(=O)CSc4ccncc4)c3nc2c1	1.38
CCc1ccc2oc(C(=O)NCc3ccc4c(c3)OCO4)cc(=O)c2c1	-5.08
Cc1nnc(N2CCCC(C(=O)NCCN3CCOCC3)C2)c2nn(-c3ccccc3)c(C)c12 (stereo not shown)	-0.518
CS(=O)(=O)N(CC(=O)NCc1ccncc1)c1cccc2ccccc12	-1.38
Nc1c(C(=O)O)ccc2c1C(=O)c1ccccc1C2=O	0.912
COCCN1C(=O)c2ccccc2C(C(=O)NCC2CCCO2)C1c1cccs1 (stereo not shown)	3
Fc1ccccc1N1CCN(Cc2ccc(Cl)cc2Cl)CC1	-4.5
COc1cccc(-n2nnc3c(=O)n(CC(=O)NCc4ccc5c(c4)OCO5)cnc32)c1	-5.79
CSc1ccc(OC2CCN(Cc3ccccc3)CC2)cc1	0.658
CCC(C(=O)NC1CCCCC1C)n1sc2ccccc2c1=O (stereo not shown)	1.15
COc1ccc(OC)c(C2C(C#N)=C(N)Oc3[nH]nc(-c4ccccc4)c32)c1 (stereo not shown)	-2.24
COc1cc2c(cc1OC)C(C(=O)NC1CCCCC1)C(c1cccnc1)N(C)C2=O (stereo not shown)	2.59
CCOC(=O)N1CCC(NC(c2ccccc2)c2ccccc2)CC1	-1.5
CCN(CC)c1ncnc2sc3c(c12)CCCC3	-5.05
O=C(NCCc1ccccc1)c1noc2c1CCCCC2	-3.12
O=C(CSc1ncccn1)NC(=O)c1ccccc1	3.66

Structure (SMILES)	% Inhibition @ 10 uM [%]
COC1CCCCC1NC1CCCCCC1 (stereo not shown)	-1.54
Cc1cccc(NC(=O)c2cccc(Cn3cc(Cl)cn3)c2)n1	5.52
O=C(c1ccccc1)c1ccc(N2CCCC2)c(F)c1	-3.09
CC(=O)N1N=C(c2ccccc2)CC1c1ccccc1 (stereo not shown)	-1.86
CCN(Cc1ccccc1)Cc1cc(Cl)ccc1O	3.15
CCOc1ccc(NC(=O)c2c(NC(=O)c3ccco3)sc3c2CCCC3)cc1	1.08
Cc1[nH]c2ccccc2c1Cc1nnc(S)n1C	3.93
FC(F)(F)c1cccc(-c2noc(-c3cccc(Br)c3)n2)c1	3.94
CC(C)(C)Nc1nc(Cl)nc(NCc2cccnc2)n1	-3.14
CN(C)CCCN1C(=O)CSC1c1ccccc1 (stereo not shown)	-3.77
Cc1ccc(C(=O)N/C(=C/c2cccnc2)C(=O)N2CCCCCC2)cc1	4.07
CCOC(=O)N1CCN(C(=O)c2ccc(CS(=O)c3cccc(C)c3)o2)CC1 (stereo not shown)	1.22
O=C(Cn1c(NCCO)nc2ccccc21)c1ccc(-c2ccccc2)cc1	-6.02
CCC(CO)Nc1ncnc2c1cnn2-c1ccc(OC)cc1 (stereo not shown)	-1.97
Cc1ccc2nc(O)c3cc(C(=O)NCC4CCCO4)sc3c2c1 (stereo not shown)	5.12
O=C(CCCSc1nc(O)c2c3c(sc2n1)CCCC3)NCCO	-1.08
Cc1oc(-c2cccc(Cl)c2)nc1CS(=O)(=O)CC(=O)NCC(C)c1ccccc1 (stereo not shown)	7.96
CC(C(=O)NCCN1CCCC1)(c1ccccc1)c1ccccc1	-7.5
COc1ccc(CCNC(=O)CCc2nc3cccnc3n2Cc2cccs2)c(OC)c1OC	-7.13
COc1ccc2cc3cc(C(=O)N(C)C4CCCCC4)oc3nc2c1	0.208
c1ccc(CN2CCOCCOCCN(Cc3ccccc3)CCOCCOCC2)cc1	-0.759
COc1ccc(C(=O)N2CCN(Cc3ccccc3Br)CC2)cc1	-12.3

Structure (SMILES)	% Inhibition @ 10 uM [%]
COCCNC(=O)c1ccc2nc(-c3ccco3)c(-c3ccco3)nc2c1	1.61
Cc1ccccc1CC(CC(=O)O)C(=O)O (stereo not shown)	12.9
COc1cc(C(=O)NCCc2c(C)[nH]c3ccccc23)cc(OC)c1OC	1.72
Cc1cccc(NS(=O)(=O)c2ccccc2)n1	-3.56
CN(C)CCN(C)Cc1ccsc1	3.47
Cc1ccc(C(=O)/C=C/c2cccc(F)c2)o1	-5.5
COc1ccc(NC(=O)c2ccoc2C)cc1	5.63
CC(C)CCN1C(=O)c2ccccc2C1C(=O)NC1CCCCC1 (stereo not shown)	-0.519
Cc1nc2sc(C(=O)c3ccc4c(c3)OCCO4)c(N)c2c(C)c1C	6.69
CCCC(=O)c1cc(C(=O)CCC)c(O)c(C)c1O	2.44
Cc1ccc(CNC(=O)CCn2cccn2)cc1	-5.91
Fc1ccc(-c2nsc3c(N4CCNCC4)ncnc23)cc1	-4.54
O=C1NC(=O)/C(=C\c2cccn2-c2cccc(Br)c2)S1	-2.29
CC1CCc2c(sc3ncn4c(S)nnc4c23)C1 (stereo not shown)	-6.87
Cc1nnc(C)n1/N=C/c1ccc(C(=O)O)cc1	9.21
CCCOc1nc(-c2ccccc2)cc(-c2ccccc2)n1	3.53
Cc1ccc(N2C(=O)CC(N3CCN(C/C=C/c4ccccc4)CC3)C2=O)cc1 (stereo not shown)	-10.8
O=[N+]([O-])c1cccc(C2=Nc3ccccc3C(c3ccccc3)(c3ccccc3)O2)c1	1.29
O=C1c2cccc3cccc(c23)C(=O)N1Cc1ccco1	22.6
O=C(Nc1cccc(F)c1)NC1CCCCC1	-0.351
CC(C)c1nc(N2CCN(C(=O)c3ccco3)CC2)c(C#N)c2c1COC(C)(C)C2	1.03
COc1ccc(CNCc2ccc(Br)cc2)cc1OC	-4.16

Structure (SMILES)	% Inhibition @ 10 uM [%]
CCc1c(CN2CCC(C)CC2)csc1C	-0.716
CCc1ccc(N2CC(C(=O)Nc3ccccc3C(=O)Nc3ccccc3C)CC2=O)cc1 (stereo not shown)	1.17
COc1ccc(OC)c(N2Cc3ccccc3C2)c1	-4.15
N#Cc1cc2c(nc1SCC(=O)Nc1nonc1-n1cccc1)CCCC2	4.61
CCn1ncc(C2=NOC(C(=O)N3CCN(C(=O)c4ccco4)CC3)C2)c1C (stereo not shown)	-6.68
O=C1CC(N2CCC(Cc3ccccc3)CC2)C(=O)N1c1ccccc1 (stereo not shown)	1.34
C=C(C)Cn1c(N2CCOCC2)nc2c1c(=O)n(C)c(=O)n2C	0.635
CCc1cccc(NC(=O)c2ccco2)c1	-1.42
O=C(c1cccc([N+](=O)[O-])c1)N1CCN(c2ccc(F)cc2)CC1	-4.3
COc1ccccc1N1CCN(C2CC(=O)N(c3ccc(C)cc3Cl)C2=O)CC1 (stereo not shown)	3.91
CCO/C(O)=C1/C(C)=Nc2nc(SCC)nn2C1c1ccccc1Cl (stereo not shown)	-5.33
CN(CC1OCCc2ccccc21)CC(c1ccccc1)c1ccccc1 (stereo not shown)	-0.902
CCCCN(Cc1ccccc1)C(=O)c1ccc2ccccc2n1	3.93
Cc1oc(-c2ccc(Cl)cc2)nc1CN1CCC(C(=O)NCC2CCCO2)CC1 (stereo not shown)	-2.85
CC(C)Nc1nc2c(S(=O)(=O)c3ccc(C(C)C)cc3)nnn2c2ccsc12	1.41
Cc1cc(C)n(C(C)CC(=O)NCCc2cccs2)n1 (stereo not shown)	-2.85
N#CC1=C(N)OC2=C(C(=O)CCC2)C1c1cccnc1 (stereo not shown)	-5.5
O=c1oc2ccccc2nc1/C=C(\O)c1ccc([N+](=O)[O-])cc1	-2.55

From article PMC6919601, “Identification of Plasmodium dipeptidyl aminopeptidase allosteric inhibitors by high throughput screening” (PLoS ONE, 2019)
